In PubChem BioAssay AID2676 (National Center for Advancing Translational Sciences (NCATS), 2010):
Hit rate of the full screen: of about 370,000 compounds, about 1,100 (0.3%) were called active. The inconclusive results got no clear call from the source; some entries with a clear call stand among them for comparison. Calls come from the whole dose curve; as a rule, active = well fitted activation curve with a large enough effect; inconclusive = small, poorly fitted or top-dose-only effect; inactive = flat fitted curve, though single readings scatter. Potencies of inconclusive entries are doubtful fits and often do not repeat.

target: Relaxin receptor 1 (Homo sapiens) (UniProt Q9HBX9); test: qHTS Assay for Agonists of the Relaxin Receptor RXFP1; conditions: HEK293T-RXFP1 cAMP TR-FRET, 30 min; series mostly up to 57.5 µM; activation: at the top concentration; note: nearly all actives have a fitted effect of over 60% in size
Chain of UniProt Q9HBX9 (Q9HBX9 whole entry, looked up): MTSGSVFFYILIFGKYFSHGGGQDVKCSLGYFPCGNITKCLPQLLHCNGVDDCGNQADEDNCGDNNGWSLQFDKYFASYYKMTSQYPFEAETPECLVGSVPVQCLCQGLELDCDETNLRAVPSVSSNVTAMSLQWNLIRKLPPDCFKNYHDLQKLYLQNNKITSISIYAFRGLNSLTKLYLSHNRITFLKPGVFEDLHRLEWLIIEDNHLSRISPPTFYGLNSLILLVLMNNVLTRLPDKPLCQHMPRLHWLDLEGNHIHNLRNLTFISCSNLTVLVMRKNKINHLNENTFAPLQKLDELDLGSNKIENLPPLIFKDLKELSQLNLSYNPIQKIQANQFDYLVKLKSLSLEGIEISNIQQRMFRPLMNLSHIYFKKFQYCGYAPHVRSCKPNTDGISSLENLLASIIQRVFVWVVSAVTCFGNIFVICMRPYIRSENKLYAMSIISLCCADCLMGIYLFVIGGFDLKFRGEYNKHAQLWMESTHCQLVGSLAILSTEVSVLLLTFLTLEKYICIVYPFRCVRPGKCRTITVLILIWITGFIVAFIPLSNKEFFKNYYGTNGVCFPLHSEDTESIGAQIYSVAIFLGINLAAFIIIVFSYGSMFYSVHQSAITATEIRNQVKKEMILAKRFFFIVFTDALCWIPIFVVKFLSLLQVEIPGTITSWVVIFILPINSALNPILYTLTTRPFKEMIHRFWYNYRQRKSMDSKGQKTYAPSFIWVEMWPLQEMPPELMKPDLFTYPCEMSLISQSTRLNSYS
Outline: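 Agonist response is measured as cAMP accumulation in an RXFP1-transfected HEK293T line under PDE4 inhibition. Values are scaled between buffer-only and 29 nM porcine relaxin, and EC50s come from standard Hill equation fits.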
% is set by controls: 0 for no effect and ±100 for the full control effect; potency is the fitted concentration of half-maximal effect; tags give direction and shape of the fitted curve.

activation, inactive:
CC(=O)Nc1ccc(OCc2cccc([N+](=O)[O-])c2)cc1 2.5%, COc1nc(-c2ccc(C)cc2)ccc1-c1noc(-c2cccnc2)n1 2.05%, C/C(=N\NC(N)=O)c1c(F)cccc1F -0.709%, COC(=O)CNC(c1ccccc1)c1cc(C)ccc1NC(=O)CNC(=O)OCc1ccccc1 (centres undefined) -1.02%, CCCCCOc1ccc(C(=O)N(Cc2ccccc2)C2CCS(=O)(=O)C2)cc1 (centres undefined) 0.217%

Potency, active:
O=[N+]([O-])c1cc2c(c(CSc3ncccn3)c1)OCOC2 14.1 µM

Potency, inconclusive:
O=C(Nc1nc2ccc([N+](=O)[O-])cc2s1)c1ccco1 39.8 µM [activator, single point], CN(C(=O)c1cc2c(=O)n3ccccc3nc2n1C)C1CCCCC1 28.2 µM [activator, single point], NC(=O)c1ccc2nc(NC(=O)c3ccc(N)cc3)sc2c1 35.5 µM [activator, single point], CCc1cc2cc3c(cc2nc1SCC(=O)Nc1c[nH]c(=O)[nH]c1=O)OCO3 39.8 µM [activator, single point], COc1ccc(C2CC(=O)c3c([nH]c(C(=O)OCc4ccccc4)c3C)C2)cc1OC (centres undefined) 35.5 µM [activator, single point], CC(C)Cn1c(CN2CCN(C(=O)c3ccco3)CC2)nc2c1c(=O)n(C)c(=O)n2C 31.6 µM [activator, partial curve], CCc1nc(SCC(=O)NCCc2ccccc2)c2oc3ccccc3c2n1 39.8 µM [activator, single point], COCCCn1c(=N)c(C(=O)NC2CCCC2)cc2c(=O)n3ccccc3nc21 31.6 µM [activator, partial curve], CCCn1c(=O)c2sccc2n2c(CCCC(=O)NCCOC)nnc12 22.4 µM [activator, partial curve], O=C(CSc1ccc2nnc(-c3cccnc3)n2n1)Nc1ccc(F)cc1F 14.1 µM [activator, partial curve], O=C1c2ccccc2C(=O)N1CCc1csc(-c2cccc(Cl)c2)n1 39.8 µM [activator, single point], Cc1ccc(S(=O)(=O)N2CCN(C(=O)CSc3nc4ccccc4c(=O)[nH]3)CC2)cc1 39.8 µM [activator, single point], O=C(Nc1cc2c(=O)n(-c3ccc(Oc4ccccc4)cc3)ccc2oc1=O)c1ccccc1 35.5 µM [activator, single point]
